# Experimental data reported in PubChem BioAssay AID463173 (ICCB-Longwood Screening Facility, Harvard Medical School, 2010).
# About 4,300 (8.3%) of roughly 52,000 compounds were called active. No stated cut-off is given here; in the data, active means survival mostly below about 52% (no sharp cut-off); inactive means mostly above about 56%. The list shows a part of the results.
# System: DeltatarO mutant
# Test: growth inhibition of S. aureus wild type versus tarO mutant, primary screen, teichoic acid synthesis inhibitors, RN4220, OD600 (AID 463173)
# Settings: OD600, 18 h, hits give low values, screened at 18.75 µg/mL (by protocol)
row,SMILES,survival
1,COc1ccccc1NC(=O)n1ncc2c(C)cccc21,inactive: 82%
2,CCOC(=O)c1nnc2c(-c3ccc(OC)cc3)c(C)nn2c1N,inactive: 130%
3,CCOC(=O)c1cc2sc(C)cc2n1CC,inactive: 122%
4,CC(=O)N1CCCc2cc(S(=O)(=O)N3CCC(C(=O)NCCC(C)C)CC3)ccc21,inactive: 91%
5,O=C(NC1CC(=O)N(c2ccc(F)cc2)C1)c1cc2ccccc2o1 (stereo not drawn),inactive: 124%
6,CC(=O)c1cccc(NC(=O)CCS(=O)(=O)c2cc(Br)cc3c2N(C(=O)C2CC2)CC3)c1,inactive: 132%
7,CCCC(=O)N1CC(=O)Nc2ccc(Cl)cc2C1c1ccc(F)cc1 (stereo not drawn),inactive: 50%
8,COc1cc2c(cc1OC)-c1n[nH]c(=S)n1C(C)(C)C2,inactive: 90%
9,Cc1ccc2c(=O)c(C(=O)NC3CCCC3)c[nH]c2c1,inactive: 92%
10,COC(=O)C1=C(C)NC2=C(C(=O)c3ccccc32)C1c1cc2c(cc1Cl)OCO2 (stereo not drawn),inactive: 82%
11,O=S(=O)(Nc1cccc(-c2ccc(N3CCCCC3)nn2)c1)c1cccs1,inactive: 79%
12,COc1ccc(OC)c(C2CC(=O)c3c([nH]c(C(=O)OCC4CCCCC4)c3C)C2)c1 (stereo not drawn),inactive: 71%
13,Cc1cccc(CCn2c(=O)c3ccccc3n(Cc3cccc(F)c3)c2=O)c1,inactive: 87%
14,CCCn1c(CCC(=O)O)ccc1-c1ccccc1,inactive: 91%
15,COCCn1c(SCC(=O)Nc2ccc(F)c(Cl)c2)nc2c(oc3ccccc32)c1=O,active: 44%
16,COc1ccc(C(=O)NCCc2sc(-c3cccc(F)c3)nc2C)cc1,inactive: 67%
17,Cc1nc2ccn(Cc3cccnc3)c(=O)c2cc1C(=O)Nc1ccc(OC(F)(F)F)cc1,inactive: 98%
18,Cc1ccccc1NS(=O)(=O)c1ccc2[nH]cc(C(=O)N3CCCC3)c(=O)c2c1,inactive: 80%
19,Cn1c(C(=O)NCc2ccc(F)cc2)cc2c(=O)n(C)c3ccccc3c21,inactive: 83%
20,NC(=O)CS(=O)(=O)c1ccc(Cl)cc1,inactive: 78%

row,SMILES,survival
1,COc1ccc(CCNC(=O)Cn2nnc(-c3ccc(C(F)(F)F)cc3)n2)cc1OC,inactive: 95%
2,CCCn1c(=O)c2sccc2n2c(CCCC(=O)N3CCN(c4ccccc4)CC3)nnc12,inactive: 93%
3,CCc1cccc(NC(=O)c2nnn(Cc3ccc(SC)cc3)c2N)c1,inactive: 59%
4,COc1cccc(N2C(=O)C(CC(=O)Nc3ccc(Cl)cc3)N(Cc3ccc4c(c3)OCO4)C2=O)c1 (stereo not drawn),inactive: 45%
5,COc1ccc(N2CCN(C(=O)c3c(C)oc4ncnc(N5CCCCC5)c34)CC2)cc1,inactive: 119%
6,CCOCCCNC(=O)C(c1ccccc1)N(Cc1cccs1)C(=O)c1ccc(NC(C)=O)cc1 (stereo not drawn),inactive: 70%
7,CCn1c(=O)c2sccc2n2c(CCCC(=O)N3CCN(c4ccc(OC)cc4)CC3)nnc12,inactive: 89%
8,O=C1CC(c2ccccc2)Cc2[nH]c(=O)c(C(=O)Nc3ccc(OC(F)(F)F)cc3)cc21 (stereo not drawn),inactive: 163%
9,Cc1cccc(N2CCN(C(=O)C3CCCN(S(=O)(=O)c4cccc5nsnc45)C3)CC2)c1C (stereo not drawn),inactive: 80%
10,Cc1cccc(-c2noc(CCCC(=O)NCc3ccco3)n2)c1,active: 42%
11,COCCn1c(CCC(=O)Nc2cc(C)ccc2C)nc2cccnc21,inactive: 114%
12,CCOc1ccccc1NC(=O)CCS(=O)(=O)c1cccc2nsnc12,inactive: 112%
13,Cc1ccc(C)c(Cn2c(C(C)NC(=O)c3ccc(F)cc3)nc3ccccc32)c1 (stereo not drawn),inactive: 79%
14,CCN(c1ccccc1)S(=O)(=O)c1cc(-c2onc(C)c2C)ccc1OC,inactive: 79%
15,O=c1[nH]c2ccc(NCc3ccc(-c4cccc(Cl)c4)o3)cc2[nH]1,inactive: 52%
16,CCOc1ccc(S(=O)(=O)N2CCN(c3cc(Cl)ccc3Cl)CC2)c2ccccc12,inactive: 64%
17,Cc1ccc(NC(=O)CN2C(=O)C(c3ccc(F)cc3)=NC23CCCCC3)c(C)c1,inactive: 63%
18,O=C(CCCCCn1c(=O)[nH]c2ccccc2c1=O)NCc1cccc(Cl)c1,inactive: 69%
19,CCc1ccccc1NC(=O)C(CC)Sc1ncnc2c1sc1ccccc12 (stereo not drawn),inactive: 89%
20,CCOc1ccccc1CNC(=O)C1CCN(S(=O)(=O)c2cccc3nonc23)CC1,inactive: 88%

row,SMILES,survival
1,Cn1c(=O)c2c(SCC(=O)N3CCc4ccccc43)nc(-c3cccc(F)c3)nc2n(C)c1=O,inactive: 124%
2,O=C(Nc1ccc(Br)cc1)C1CCCN(S(=O)(=O)c2ccc(Br)s2)C1 (stereo not drawn),inactive: 82%
3,Cc1cc(C)c2c(CC(=O)Nc3ccc(S(=O)(=O)N4CCCC(C)C4)cc3)coc2c1 (stereo not drawn),inactive: 72%
4,Cc1ccc(OCC(=O)Nc2cccc(OCc3cc(=O)n4ccccc4n3)c2)cc1C,inactive: 96%
5,Fc1c(F)c(Oc2ccccc2)c(F)c(F)c1Oc1ccccc1,inactive: 100%
6,Cc1cc(Br)ccc1NC(=O)C(Cc1ccccc1)NS(=O)(=O)c1ccc(Br)s1 (stereo not drawn),inactive: 114%
7,O=S(=O)(c1ccc2oc(-c3cccnc3)nc2c1)c1ccc2oc(-c3cccnc3)nc2c1,inactive: 64%
8,CCOc1cc(C2Nc3ccccc3-c3nnc(SCc4ccccc4)nc3O2)ccc1OC (stereo not drawn),active: 45%
9,CCC(C(=O)Nc1ccc(C(=O)OC)cc1)n1nc(-c2ccc(C)cc2)c2c(c1=O)CCCC2 (stereo not drawn),inactive: 102%
10,O=C(Cc1ccccc1)N1CCSC1=S,inactive: 104%
11,O=C(NCc1ccc(Cl)cc1)c1ccc(CSCc2cccc(Cl)c2)o1,inactive: 119%
12,O=C(Nc1ccc(Cl)cc1F)c1oc(=O)c2ccccc2c1-c1ccccc1,inactive: 61%
13,O=C(Cc1ccccc1)N(Cc1cccnc1)c1nc2c(F)cccc2s1,inactive: 83%
14,COc1ccc(OCc2nc3ccccc3n2C(C)c2ccccc2)cc1 (stereo not drawn),active: -15%
15,Cc1ccnc(NS(=O)(=O)c2ccc(NC(=O)C(C)(C)Oc3ccc(Cl)cc3)cc2)n1,inactive: 73%
16,CCOc1cccc2cc(-c3cn4c(n3)sc3cc(C)ccc34)c(=O)oc12,active: -4%
17,CCNC(=S)N1CCN(CCN=CC2=C(O)CC(C)(C)CC2=O)CC1,inactive: 64%
18,CCOc1ccccc1NC(=O)CSc1nc2c(c(=O)[nH]1)CCC2,inactive: 101%
